# Test results as given in paper PMC4336329 (PLoS ONE, 2015).
# Out of some 310,000 compounds screened, about 2,200 (0.71%) showed an effect of 50% or more. The effect is printed as a negative number. The list shows a part of the results.
# Molecular target: human ether-à-go-go-related gene (hERG) potassium channel (human, UniProt Q12809)
# Test: primary screen, population patch clamp on CHO cells stably expressing hERG
# human ether-à-go-go-related gene (hERG) potassium channel, sequence (Q12809 whole entry, looked up): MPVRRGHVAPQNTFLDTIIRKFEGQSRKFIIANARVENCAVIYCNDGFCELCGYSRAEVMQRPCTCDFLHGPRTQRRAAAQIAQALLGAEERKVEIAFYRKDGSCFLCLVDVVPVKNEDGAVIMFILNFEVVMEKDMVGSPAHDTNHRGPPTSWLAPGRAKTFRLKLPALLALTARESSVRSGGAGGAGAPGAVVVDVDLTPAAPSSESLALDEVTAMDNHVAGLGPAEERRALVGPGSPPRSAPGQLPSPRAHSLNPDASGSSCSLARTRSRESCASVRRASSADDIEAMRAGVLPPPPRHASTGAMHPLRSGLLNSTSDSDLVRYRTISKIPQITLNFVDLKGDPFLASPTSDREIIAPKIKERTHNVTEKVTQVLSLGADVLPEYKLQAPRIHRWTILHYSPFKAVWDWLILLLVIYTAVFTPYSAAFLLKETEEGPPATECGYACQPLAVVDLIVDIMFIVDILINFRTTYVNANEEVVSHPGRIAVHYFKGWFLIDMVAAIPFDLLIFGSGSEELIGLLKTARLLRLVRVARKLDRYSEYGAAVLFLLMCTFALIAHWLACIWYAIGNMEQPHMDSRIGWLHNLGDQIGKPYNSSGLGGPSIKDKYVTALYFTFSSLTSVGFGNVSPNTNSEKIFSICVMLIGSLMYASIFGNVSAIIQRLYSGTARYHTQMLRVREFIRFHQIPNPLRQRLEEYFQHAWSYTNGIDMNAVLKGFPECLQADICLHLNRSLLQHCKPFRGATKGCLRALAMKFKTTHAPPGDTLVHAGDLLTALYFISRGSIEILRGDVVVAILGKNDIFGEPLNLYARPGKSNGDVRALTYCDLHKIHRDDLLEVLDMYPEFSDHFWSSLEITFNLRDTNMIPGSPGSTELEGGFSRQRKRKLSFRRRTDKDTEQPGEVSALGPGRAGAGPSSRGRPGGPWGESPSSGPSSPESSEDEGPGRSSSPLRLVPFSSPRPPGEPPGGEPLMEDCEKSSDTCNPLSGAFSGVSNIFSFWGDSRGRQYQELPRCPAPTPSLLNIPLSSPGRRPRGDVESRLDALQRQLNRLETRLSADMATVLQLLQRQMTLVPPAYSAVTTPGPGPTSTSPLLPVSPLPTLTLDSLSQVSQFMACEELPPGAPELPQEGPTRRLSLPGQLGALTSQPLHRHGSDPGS
row,SMILES,"hERG current change (%, negative = inhibition) at 1uM [%]"
1,CCCc1cc(=O)[nH]c(SCC(=O)N2CCC(C)CC2)n1,12.5
2,Cc1ccc(S(=O)(=O)N2CCN(C(=O)COC(=O)CSc3cc(C)ccc3C)CC2)c(C)c1,3.82
3,Cc1cc(C)c(C(=O)N(C)C2CCCN(Cc3ccccc3F)C2)o1 (stereo not drawn),9.19
4,COC(=O)Nc1nc(-c2ccc(F)cc2)c(C)s1,11.3
5,CC1CCCN(S(=O)(=O)c2ccc(N(C(=O)c3cnccn3)C(C(=O)NC3CCCCC3)c3cccs3)cc2)C1 (stereo not drawn),7.09
6,COC(=O)C1[C@H]2SC(C)(C)C(C(=O)OC)N2C(=O)N1Cc1nc2ccccc2s1 (stereo partly drawn),-4.16
7,COc1ccc2nc3oc(C(=O)N4CCN(c5ccccc5F)CC4)cc3cc2c1,21.9
8,COCCNC(=O)COCc1cc(-c2ccc3c(c2)OCO3)on1,18.6
9,COCCNc1nc(SC)nc2sc3c(c12)CCN(C)C3,-42.1
10,C=C1CCN(c2ccc(C(=O)NCc3ccc(OC)cc3)cc2[N+](=O)[O-])CC1,3.7
11,CCOC(=O)N1CCN(C(=O)c2ccc(OCC)cc2)CC1,12.1
12,CCN1N=C(C)C=C(c2ccccc2)n2c1nc1ccccc12.Cl,1.53
13,CC(C)(C)C1=NN(c2ccc([N+](=O)[O-])cc2)C(c2ccccc2)C1 (stereo not drawn),8.46
14,CCCn1c(SCC(=O)N2c3ccccc3CCc3ccccc32)nc2c1c(=O)n(C)c(=O)n2C,18.3
15,COCCNC(=S)Nc1ccc2nc(N3CCOCC3)cc(C)c2c1,14.9
16,CC(=O)c1ccc(S(=O)(=O)NCCCC(=O)N(C)Cc2ccc3c(c2)OCO3)cc1,-16
17,COc1ccc(N(CC(=O)N/N=C/c2ccc(OC)c(OC)c2)S(=O)(=O)c2ccccc2)cc1,17.7
18,O=C(Cn1cnc([N+](=O)[O-])c1)Nc1cc(Oc2ccc(Cl)cc2Cl)cc([N+](=O)[O-])c1,5.84
19,CCn1nnc(NC(=O)c2ccco2)n1,14.7

row,SMILES,"hERG current change (%, negative = inhibition) at 1uM [%]"
1,COc1cc(CCC(=O)Nc2cc(Cl)ccc2N2CCN(C)CC2)cc(OC)c1OC,6.79
2,NNC(=O)CNc1ccccc1Cl,12.2
3,Cc1ccc(N(C(=O)Cc2cccs2)C2C=CS(=O)(=O)C2)cc1Cl (stereo not drawn),7.2
4,COc1cc(NC(=O)CCc2nnc3ccc(NCc4ccco4)nn23)cc(OC)c1,14.5
5,Cc1cccc(OC(=O)c2cncc(Br)c2)c1,10.1
6,Cc1ccc(-n2c(C)cc(/C=C3\SC(=O)NC3=O)c2C)cc1,10.4
7,CCCNC(=O)CCC(=O)Nc1ncc(-c2ccc(C)cc2)n1C,16.1
8,O=C(CN1CCN(c2ccccc2)CC1)Nc1cccc(C(F)(F)F)c1,12.4
9,Cc1ccc(C(=O)C[n+]2ccccc2C)cc1[N+](=O)[O-].[Br-],6.63
10,COc1ccc(N/N=C(/N=Nc2nc(C)cc(=O)[nH]2)c2ccccc2)cc1,-5.23
11,CCOC(=O)c1ccc(NC(=S)NC(=O)c2cncc(Br)c2)cc1,12.3
12,COc1cccc(NC(=O)Cc2csc(NC(=O)Nc3ccccc3OC)n2)c1,12.6
13,Cc1ccc2c(CC(=O)N3CCc4ccccc43)coc2c1,8.85
14,Cc1ccc(C)c(NC(=S)NNC(=O)c2csc(C)c2C)c1,5.34
15,O=C1Nc2ccccc2Nc2ccccc21,17.7
16,O=C(NCN1CCN(CCO)CC1)c1cnccn1,14.3
17,CC(Sc1nc(N)cc(=O)[nH]1)C(=O)NCC(=O)Nc1ccc(F)c(F)c1F (stereo not drawn),-12.7
18,CN(C)c1ccc(/C=N/NC(=O)CNC(=O)c2ccco2)cc1,18.4
19,CCON1C(=O)CN(C(=O)OC)C1c1ccc(Cl)cc1Cl (stereo not drawn),5.27

row,SMILES,"hERG current change (%, negative = inhibition) at 1uM [%]"
1,CC(=O)Nc1ccc(NC(=O)c2ccc(-n3c(C)ccc3C)cc2)cc1,3.14
2,CC(=O)c1ccc(NC(=O)Nc2ncn(Cc3cccc(C)c3)n2)cc1,3.63
3,CC(=O)c1ccc(-c2ccccc2OC(F)(F)F)o1,8.56
4,CC(=O)Nc1ccc(S(=O)(=O)N[C@@H](C)C(=O)Nc2ccc(N3CCOCC3)cc2)cc1,14
5,Br.N=c1n(CCN2CCOCC2)c2ccccc2n1CC(=O)c1ccc(Cl)c(Cl)c1,-69.1
6,Nc1cccc(C(=O)O)c1,10.1
7,CCN(C(=O)COC(=O)c1ccccc1NCCO)c1cccc2ccccc12,8.47
8,C/C(=N/NC(=O)CSCc1ccc(Cl)cc1)c1cccc(NC(=O)c2ccccc2)c1,8.66
9,Cc1sc2nc(CN3CCCCC3)nc(Cl)c2c1C,9.23
10,COc1ccc2c(c1)-c1c(ssc1=S)C(C)(C)N2S(=O)(=O)c1ccc(C)cc1,3.8
11,CC(C)(CO)Nc1nc(N2CCCC2)nc(N2CCCC2)n1,0.747
12,Cc1ccc(NC(=O)CSc2nnc(-c3cccs3)o2)cc1S(=O)(=O)N1CCCCC1,6.08
13,COc1ccc(-c2[nH]ncc2N=Nc2cc(C)cc(C)c2)cc1,23.5
14,Cc1sc(-n2c(C)cc(/C=C3\SC(=S)NC3=O)c2C)c(C#N)c1C,8.84
15,COc1cc(CN(C(=O)c2ccco2)c2ccc(C)cc2)ccc1O,-1.51
16,COc1ccc(C=O)cc1OC1C=CCCC1 (stereo not drawn),12.9
17,CC(=Nc1ccccc1)C1=C(O)COC1=O,7.28
18,Cc1cccc(N2CCN(C(=O)C3CCN(S(=O)(=O)c4cnc[nH]4)CC3)CC2)c1C,14.2
19,COCCNC(=O)Cn1c(=O)n(Cc2ccc(C(=O)NCCc3ccc(OC)c(OC)c3)cc2)c(=O)c2ccccc21,15.5
